# Hit rate of the full screen: of about 310,000 compounds, about 2,200 (0.71%) showed an effect of 50% or more. Effects have a minus sign here. Some of the results follow.
# Molecular target: human ether-à-go-go-related gene (hERG) potassium channel (human, UniProt Q12809)
# Assay: primary screen, population patch clamp on CHO cells stably expressing hERG
# Sequence of human ether-à-go-go-related gene (hERG) potassium channel (Q12809 whole entry, looked up): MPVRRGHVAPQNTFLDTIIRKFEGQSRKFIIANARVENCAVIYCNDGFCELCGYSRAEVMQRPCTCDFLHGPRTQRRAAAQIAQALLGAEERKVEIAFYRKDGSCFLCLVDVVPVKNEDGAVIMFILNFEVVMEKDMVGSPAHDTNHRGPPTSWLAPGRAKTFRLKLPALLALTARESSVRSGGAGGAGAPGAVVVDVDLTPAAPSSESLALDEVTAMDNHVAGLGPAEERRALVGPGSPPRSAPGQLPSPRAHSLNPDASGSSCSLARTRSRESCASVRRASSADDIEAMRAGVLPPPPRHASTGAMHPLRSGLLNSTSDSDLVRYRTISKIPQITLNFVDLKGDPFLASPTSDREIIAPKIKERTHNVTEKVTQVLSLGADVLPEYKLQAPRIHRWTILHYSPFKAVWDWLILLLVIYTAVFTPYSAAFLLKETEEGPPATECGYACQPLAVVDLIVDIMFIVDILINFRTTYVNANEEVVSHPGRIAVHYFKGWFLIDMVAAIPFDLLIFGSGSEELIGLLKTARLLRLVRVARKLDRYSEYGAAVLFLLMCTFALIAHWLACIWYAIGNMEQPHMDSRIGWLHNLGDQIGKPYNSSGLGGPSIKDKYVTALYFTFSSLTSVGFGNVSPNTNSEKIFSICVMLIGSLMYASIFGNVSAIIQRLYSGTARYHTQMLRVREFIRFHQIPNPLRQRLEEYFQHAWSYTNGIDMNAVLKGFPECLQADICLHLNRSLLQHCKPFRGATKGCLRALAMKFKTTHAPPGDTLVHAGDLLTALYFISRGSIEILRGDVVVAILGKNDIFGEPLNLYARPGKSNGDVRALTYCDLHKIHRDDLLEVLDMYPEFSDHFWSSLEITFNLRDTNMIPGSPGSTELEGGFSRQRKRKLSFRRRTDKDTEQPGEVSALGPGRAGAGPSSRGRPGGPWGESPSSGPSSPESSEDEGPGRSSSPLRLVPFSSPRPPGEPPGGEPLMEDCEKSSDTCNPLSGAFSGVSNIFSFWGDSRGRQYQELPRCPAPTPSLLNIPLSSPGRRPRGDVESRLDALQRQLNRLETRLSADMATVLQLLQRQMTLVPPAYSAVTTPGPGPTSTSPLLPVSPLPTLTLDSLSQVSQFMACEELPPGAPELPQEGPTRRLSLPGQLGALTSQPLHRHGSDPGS
row,SMILES,"hERG current change (%, negative = inhibition) at 1uM"
1,CC(C)N(C(=O)CSc1nnc(Cn2nnc3ccccc32)n1C)C(C)C,6.55%
2,CCOP(=O)(OCC)C(Nc1ccccc1)c1cccnc1 (stereo not drawn),15.4%
3,CCOC(=O)c1cc2occc2n1CC(=O)N1CCN(C(=O)c2ccco2)CC1,-15.2%
4,COc1ccc(-n2c(Cc3cccn3C)nnc2SCC(=O)N2CCOCC2)cc1,9.14%
5,O=C(CSc1nnnn1-c1ccc(F)cc1)Nc1nc2ccccc2s1,13.9%
6,Cl.O=C(OCCN1CCOCC1)c1ccccc1,12.2%
7,Cc1cc(NC(=O)c2ccc(Cl)c(S(=O)(=O)N3CCCCC3)c2)no1,13.1%
8,COc1ccc(C(=O)OCc2cc(C)ccc2C)cc1S(=O)(=O)N1CCCC1,3.56%
9,Cc1cccc(C)c1NC(=O)c1ccc(N2CCCC2=O)cc1,3.94%
10,COc1cc(C2C(C(=O)c3ccc(C)o3)=C(O)C(=O)N2Cc2ccccc2)ccc1O (stereo not drawn),1.69%
11,CSc1ccc(C(=S)N2CCN(C)CC2)cc1,2.93%
12,Cc1ccc(-c2nc(CS(=O)CC(=O)NCc3ccc(F)cc3)c(C)o2)cc1 (stereo not drawn),12.2%
13,COc1ccc(N(CC(=O)Nc2ccc3c(c2)OCO3)S(=O)(=O)c2ccccc2)c(OC)c1,5.6%
14,CC(C)(C)NC(=O)C(c1cccs1)N(Cc1ccc(F)cc1)C(=O)c1csnn1 (stereo not drawn),-1%
15,O=C(NCCN1CCN(c2ccccc2)CC1)c1cccn2c(=O)c3cc(Cl)ccc3nc12,-15.6%
16,COCCCNC(=S)NCCNc1nc2cc(C)c(C)cc2cc1C#N,6.77%
17,COCCN1CCN(C(=O)c2ccc3oc(CCc4ccccc4)nc3c2)CC1,2.2%
18,O=C(NC1CC1)C1=C[C@H](C2CC2)C[C@H](OCCCCO)O1,17.1%
19,O=c1cc(CN2CCOCC2)c2cc(Cl)ccc2o1,13.9%
20,CCN(CC)Cc1c(C(=O)N/N=C/c2c(Cl)cccc2Cl)nnn1-c1nonc1N,4.75%
21,Cc1noc(C)c1CCC(=O)O,13.2%
22,COc1ccc(-c2cc(C(=O)Nc3cc(C)on3)c3ccccc3n2)c(OC)c1,5.51%
23,Cc1ccc2[nH]c(=O)c(CN(Cc3cccs3)C(=S)NCC3CCCO3)cc2c1 (stereo not drawn),20.5%

row,SMILES,"hERG current change (%, negative = inhibition) at 1uM"
1,COC(=O)/C(=C/c1c[nH]c2ccccc12)NC(C)=O,9.57%
2,CCCS(=O)(=O)c1c(S(=O)(=O)CCC)c2cc(CC)ccn2c1C(=O)OC,4.8%
3,O=C(Nc1ccc(Cl)c(NC(=O)c2cccs2)c1)c1ccco1,10.3%
4,COC(=O)c1ccc(C(=O)OC)c(NC(=O)CSCc2ccccc2Br)c1,13.1%
5,Cc1ccc(S(=O)(=O)N2CCCCC2)cc1NC(=O)c1cc(=O)[nH]c2ccccc12,1.76%
6,Cc1cccc(OCC(=O)Nc2nc3ccc([N+](=O)[O-])cc3s2)c1,13.4%
7,O=C(O)c1ncc(-c2ccccc2)cn1,4.62%
8,COc1ccc(CCN2C(=S)N(C)C(=O)C2CC(=O)Nc2ccc(F)cc2)cc1 (stereo not drawn),10%
9,OC(C#CCN1CCOCC1)c1cccs1 (stereo not drawn),10.4%
10,NC(=S)NNc1cc(Cl)cc(Cl)c1,-2.25%
11,Cc1cc(-c2cccs2)nc(-n2cccc2)n1,3.87%
12,CC(=O)Nc1cc(NC(C)=O)cc(C(=O)OC(C)C(=O)Nc2ccc(S(=O)(=O)N3CCCC3)cc2)c1 (stereo not drawn),8.74%
13,CCCCc1ccc(NC(=S)N2CCN(C)CC2)cc1,4.95%
14,COc1ccc(N(CC(=O)Nc2ccccc2C(F)(F)F)C2=NC3CS(=O)(=O)CC3S2)cc1 (stereo not drawn),10.4%
15,O=C(O)CCc1ccc(-c2ccc(Cl)cc2)n1NC(=O)c1ccc(O)cc1,19.3%
16,CCOC(=O)C(=CNc1ccc(Cl)cn1)C(=O)OCC,16.5%
17,O=C(Nc1cccc([N+](=O)[O-])c1)C1CC(=O)N(Cc2ccccc2)C1 (stereo not drawn),-18.8%
18,CCOc1cc2c(C#N)c(N(CC)CC)nc(N)c2c(N)n1,3.88%
19,CCOC(=O)N1CCN(c2c(NCCCOC(C)C)c(=O)c2=O)CC1,1.53%
20,COc1ccccc1C(N)=S,4.87%
21,CCc1cc(=O)oc2cc(OCC(=O)N3CCC(C(N)=O)CC3)ccc12,9.16%
22,COc1ccc(CC(=O)NCc2ccc(-n3cccc3)cc2)cc1OC,12.8%
23,O=C(NNc1c(Cl)cncc1Cl)c1sccc1Cl,8.1%

row,SMILES,"hERG current change (%, negative = inhibition) at 1uM"
1,CN(C)C(CNC(=O)c1cccs1)c1cccnc1 (stereo not drawn),17.8%
2,COc1cccc(-c2cc(C(=O)N3CCN(C(=O)c4ccco4)CC3)[nH]n2)c1,6.31%
3,CC(Sc1nnnn1-c1ccccc1)C(=O)Nc1ccc(Cl)cn1 (stereo not drawn),10.8%
4,CCOC(=O)c1ccc(NS(=O)(=O)c2ccc3c(c2)n(C)c(=O)n3C)cc1,18.5%
5,CCS(=O)(=O)N1Cc2ccccc2CC1C(=O)Nc1cccc(OC)c1 (stereo not drawn),10%
6,O=C(CSc1nc2ccccc2o1)Nc1ccccc1N1CCOCC1,1.84%
7,Cc1cnc(=O)[nH]c1SCc1ccc([N+](=O)[O-])cc1,-17.5%
8,Cc1ccc(S(=O)(=O)Nc2ccc3c(c2)C(=O)NC3=O)cc1[N+](=O)[O-],17.3%
9,O=C(CCSCc1ccccc1F)NCCc1ccccc1,13.7%
10,CC(C)C(=O)Nc1c2c(nn1-c1ccc(F)cc1)CS(=O)(=O)C2,13.7%
11,O=C(CCc1nnc2ccc(NCc3ccccc3)nn12)NC1CCCCC1,17.1%
12,Cc1cc(Br)ccc1SCC(=O)OCC(=O)Nc1ccc2[nH]c(=O)[nH]c2c1,15.4%
13,CC1CCC2(CC1)OCC1(CCC3(COC4(CCC(C)CC4)OC3)C1=O)CO2 (stereo not drawn),13.6%
14,Cc1ccc(OCC(=O)NCCCNC(=O)c2cnccn2)cc1C,9.1%
15,Cc1cc(Nc2cccc(F)c2)nc(-c2ccccc2O)n1,14.8%
16,COc1ccc(Cc2nc3ccc(C(=O)NCCn4ccnc4C)cc3o2)cc1OC,-12.6%
17,CCN(CC)C(=O)CCS(=O)(=O)c1cccc2nonc12,9.67%
18,Cc1nnc2ccc(Oc3ccc(-c4ccccc4)cc3)nn12,12.5%
19,COCCNC(=O)c1ccc2c(c1)ncn2-c1ccc(F)c(F)c1,-3.09%
20,Cc1cc(C)c2c(=O)n(CC(=O)Nc3cccc(F)c3)sc2n1,-0.269%
21,Cc1cc2ncc(S(C)(=O)=O)c(N)n2n1,16.2%
22,CN=C(Nc1ccc(Br)cc1)SC1CC(=O)N(c2ccc(OC)cc2)C1=O (stereo not drawn),19.3%
23,O=C(NC1CCCCC1)C(c1ccc(F)cc1)N(Cc1ccc2c(c1)OCO2)C(=O)c1cnsn1 (stereo not drawn),-3.38%

row,SMILES,"hERG current change (%, negative = inhibition) at 1uM"
1,CCCOc1ccc(-c2nc[nH]c2[N+](=O)[O-])cc1,18.1%
2,Cc1ccc(CNC(=O)C2CCC(=O)N2Cc2ccc(C)cc2)cc1 (stereo not drawn),-23.5%
3,NC(=O)CC(O)c1cccc(Cl)c1 (stereo not drawn),9.26%
4,CC(=O)Nc1ccc(NC(=O)CSc2ncc(C(=O)Nc3ccc(Cl)cc3)c(=O)n2C)cc1,0.0038%
5,OCn1c2ccccc2c2ccccc21,15.7%
6,COc1cc(C)c(C(C)C)cc1S(=O)(=O)n1ccnc1,3.1%
7,Cc1cc(C)cc(NC(=O)COc2coc(CN3CCN(c4ccccc4)CC3)cc2=O)c1,14.2%
8,CCN(CC)S(=O)(=O)c1ccc(Cl)c(NC(=O)c2cc(Cl)ccc2Cl)c1,9.69%
9,CNC(=O)c1ccc(-c2ccc(Cl)c(Cl)c2)s1,7.78%
10,CCNc1nc(NCC)n2c(SC(C(=O)Nc3cc(Cl)cc(Cl)c3)c3ccccc3)nnc2n1 (stereo not drawn),11.1%
11,CCOc1ccccc1NC(=O)CN(Cc1ccccc1)S(C)(=O)=O,-7.35%
12,C=CCn1c(C)cc(C(=O)CSc2nnc3c(Cl)cc(Cl)cn23)c1C,-8.59%
13,COc1ccc(C(=O)Nc2ccccc2C(=O)NCc2ccco2)cc1,10.7%
14,COc1ccc(C)cc1NC(=O)c1ccc(S(=O)(=O)N2CCCCC2)cc1,19.1%
15,O=C(N1CCOCC1)C(F)(F)C(F)(F)C(F)(F)C(F)(F)C(=O)N1CCOCC1,2.47%
16,CC(c1ccc2c(c1)OCO2)n1c(=S)[nH]c2ccccc2c1=O (stereo not drawn),10.5%
17,Cc1noc(NS(=O)(=O)c2ccc(N3Cc4ccccc4C3=O)cc2)c1C,12.9%
18,CCOc1ncccc1C(=O)OCC(=O)NC(=O)c1ccccc1,8.25%
19,CC(C)CC(NC(=O)OC(C)(C)C)c1cn([C@@H](CCCCNC(=O)OC(C)(C)C)C(=O)N2CCN(C(=O)OC(C)(C)C)CC2)nn1 (stereo partly drawn),15.1%
20,CCc1ccc(C(=O)Nc2cc(C)on2)o1,14.8%
21,Cc1cccc(-n2c(-c3ccccc3)nc3ccccc3c2=O)n1,7.74%

# — article PMC4336329 (PLoS ONE, 2015)
